Data reported in patent US9586962B2, “Disubstituted octahydropyrrolo [3,4-C] pyrroles as orexin receptor modulators” (Janssen Pharmaceutica NV, priority 2011, dated 2017).
pKi: −log10 of the molar value. Read-outs that look alike come from different tables or passages of the source.

Experiments:
human orexin 1 receptor [1] = molecular target: T1, human orexin 1 receptor (Homo sapiens (Human), UniProt O43613); test: biochemical
human orexin 1 receptor [2] = molecular target: T1, human orexin 1 receptor; conditions: read-out: OR 1 Ki, radioligand competition binding

T1 sequence (O43613 whole entry): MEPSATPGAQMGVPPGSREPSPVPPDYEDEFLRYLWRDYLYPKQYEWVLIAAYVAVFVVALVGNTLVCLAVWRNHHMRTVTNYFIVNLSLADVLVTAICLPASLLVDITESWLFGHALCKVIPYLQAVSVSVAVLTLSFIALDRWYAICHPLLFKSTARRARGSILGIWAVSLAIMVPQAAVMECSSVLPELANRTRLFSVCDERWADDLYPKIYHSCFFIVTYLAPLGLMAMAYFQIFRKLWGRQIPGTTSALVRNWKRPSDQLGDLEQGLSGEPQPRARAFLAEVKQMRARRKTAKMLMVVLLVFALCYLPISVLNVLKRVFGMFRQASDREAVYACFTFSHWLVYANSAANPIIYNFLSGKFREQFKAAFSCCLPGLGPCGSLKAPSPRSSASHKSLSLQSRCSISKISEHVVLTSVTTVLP

**Q.** How did the pKi (human orexin 1 receptor [1]) turn out when [2H]c1c(C([2H])([2H])[2H])nc(N2CC3CN(C(=O)c4cccc(F)c4-c4ncccn4)CC3C2)nc1C([2H])([2H])[2H] (stereo not shown) [Example 431, 2-{4,6-Bis[(^2H3)methyl](^2H)pyrimidin-2-yl}-5-[(3-fluoro-2-pyrimidin-2-ylphenyl)carbonyl]octahydropyrrolo[3,4-c]pyrrole] was run?
**A.** 5.73

**Q.** How did the pKi (human orexin 1 receptor [2]) turn out when O=C(c1cccc(F)c1-c1ncco1)N1CC2CN(c3cnc4cc(F)c(F)cc4n3)CC2C1 (stereo not shown) [Example 451, 6,7-Difluoro-2-[5-{[3-fluoro-2-(1,3-oxazol-2-yl)phenyl]carbonyl}hexahydropyrrolo[3,4-c]pyrrol-2(1H)-yl]quinoxaline] was run?
**A.** 6.20

**Q.** How did the pKi (human orexin 1 receptor [2]) turn out when O=C(c1cccc(F)c1-c1ccccn1)N1CC2CN(c3cnc4cc(F)c(F)cc4n3)CC2C1 (stereo not shown) [Example 452, 6,7-Difluoro-2-{5-[(3-fluoro-2-pyridin-2-ylphenyl)carbonyl]hexahydropyrrolo[3,4-c]pyrrol-2(1H)-yl}quinoxaline] was run?
**A.** 6.16

**Q.** COc1cccnc1-c1c(F)cccc1C(=O)N1CC2CN(c3cnc4cc(F)c(F)cc4n3)CC2C1 (stereo not shown) [Example 453, 6,7-Difluoro-2-[5-{[3-fluoro-2-(3-methoxypyridin-2-yl)phenyl]carbonyl}hexahydropyrrolo[3,4-c]pyrrol-2(1H)-yl]quinoxaline] was tested. Which pKi (human orexin 1 receptor [2]) did it give?
**A.** 5.56

**Q.** How did the pKi (human orexin 1 receptor [2]) turn out when O=C(c1cccc(F)c1-c1cncs1)N1CC2CN(c3cnc4cc(F)c(F)cc4n3)CC2C1 (stereo not shown) [Example 454, 6,7-Difluoro-2-[5-{[3-fluoro-2-(1,3-thiazol-5-yl)phenyl]carbonyl}hexahydropyrrolo[3,4-c]pyrrol-2(1H)-yl]quinoxaline] was run?
**A.** 6.61

**Q.** How did the pKi (human orexin 1 receptor [2]) turn out when O=C(c1cccc(F)c1-c1cscn1)N1CC2CN(c3cnc4cc(F)c(F)cc4n3)CC2C1 (stereo not shown) [Example 455, 6,7-Difluoro-2-[5-{[3-fluoro-2-(1,3-thiazol-4-yl)phenyl]carbonyl}hexahydropyrrolo[3,4-c]pyrrol-2(1H)-yl]quinoxaline] was run?
**A.** 6.45

**Q.** O=C(c1cccc(F)c1-c1[nH]ncc1F)N1CC2CN(c3cnc4cc(F)c(F)cc4n3)CC2C1 (stereo not shown) [Example 456, 6,7-Difluoro-2-[5-{[3-fluoro-2-(4-fluoro-1H-pyrazol-5-yl)phenyl]carbonyl}hexahydropyrrolo[3,4-c]pyrrol-2(1H)-yl]quinoxaline] was tested. Which pKi (human orexin 1 receptor [2]) did it give?
**A.** 6.34

**Q.** COc1ccc(C(=O)N2CC3CN(c4cnc5cc(F)c(F)cc5n4)CC3C2)c(-c2ncccn2)c1 (stereo not shown) [Example 459, 6,7-Difluoro-2-{5-[(4-methoxy-2-pyrimidin-2-ylphenyl)carbonyl]hexahydropyrrolo[3,4-c]pyrrol-2(1H)-yl}quinoxaline] was tested. Which pKi (human orexin 1 receptor [2]) did it give?
**A.** 6.68

**Q.** How did the pKi (human orexin 1 receptor [2]) turn out when Cc1cccc(C(=O)N2CC3CN(c4cnc5cc(F)c(F)cc5n4)CC3C2)c1-n1nccn1 (stereo not shown) [Example 460, 6,7-Difluoro-2-[5-{[3-methyl-2-(2H-1,2,3-triazol-2-yl)phenyl]carbonyl}hexahydropyrrolo[3,4-c]pyrrol-2(1H)-yl]quinoxaline] was run?
**A.** 5.56

**Q.** Cc1cc(C)nc(N2CC3CN(C(=O)c4cccc5c4OCC5)CC3C2)n1 (stereo not shown) [Example 463, 2-(2,3-Dihydro-1-benzofuran-7-ylcarbonyl)-5-(4,6-dimethylpyrimidin-2-yl)octahydropyrrolo[3,4-c]pyrrole] was tested. Which pKi (human orexin 1 receptor [2]) did it give?
**A.** 5.00

**Q.** With Cc1cc(C)nc(N2CC3CN(C(=O)c4c(C)nc5sccn45)CC3C2)n1 (stereo not shown) [Example 464, 5-{[5-(4,6-Dimethylpyrimidin-2-yl)hexahydropyrrolo[3,4-c]pyrrol-2(1H)-yl]carbonyl}-6-methylimidazo[2,1-b][1,3]thiazole] as the compound, how does the pKi (human orexin 1 receptor [2]) read?
**A.** 5.00

**Q.** How did the pKi (human orexin 1 receptor [2]) turn out when COc1cccc(-n2nccn2)c1C(=O)N1CC2CN(c3nc(C)cc(C)n3)CC2C1 (stereo not shown) [Example 465, 2-(4,6-Dimethylpyrimidin-2-yl)-5-{[2-methoxy-6-(2H-1,2,3-triazol-2-yl)phenyl]carbonyl}octahydropyrrolo[3,4-c]pyrrole] was run?
**A.** 5.63

**Q.** How did the pKi (human orexin 1 receptor [2]) turn out when Cc1cc(C)nc(N2CC3CN(C(=O)c4cccc(F)c4-c4ccccn4)CC3C2)n1 (stereo not shown) [Example 472, (5-(4,6-dimethylpyrimidin-2-yl)hexahydropyrrolo[3,4-c]pyrrol-2(1H)-yl)(3-fluoro-2-(pyridin-2-yl)phenyl)methanone] was run?
**A.** 5.96

**Q.** With Cc1cc(C)nc(N2CC3CN(C(=O)c4c(F)cccc4-c4nccs4)CC3C2)n1 (stereo not shown) [Example 476, 2-(4,6-Dimethylpyrimidin-2-yl)-5-{[2-fluoro-6-(1,3-thiazol-2-yl)phenyl]carbonyl}octahydropyrrolo[3,4-c]pyrrole] as the compound, how does the pKi (human orexin 1 receptor [2]) read?
**A.** 5.86

**Q.** Cc1cc(C)nc(N2CC3CN(C(=O)c4c(F)cccc4-c4ncc(C)s4)CC3C2)n1 (stereo not shown) [Example 477, 2-(4,6-Dimethylpyrimidin-2-yl)-5-{[2-fluoro-6-(5-methyl-1,3-thiazol-2-yl)phenyl]carbonyl}octahydropyrrolo[3,4-c]pyrrole] was tested. Which pKi (human orexin 1 receptor [2]) did it give?
**A.** 6.57

**Q.** Cc1cc(C)nc(N2CC3CN(C(=O)c4c(F)cccc4-c4[nH]ncc4C(F)(F)F)CC3C2)n1 (stereo not shown) [Example 478, 2-(4,6-Dimethylpyrimidin-2-yl)-5-({2-fluoro-6-[4-(trifluoromethyl)-1H-pyrazol-5-yl]phenyl}carbonyl)octahydropyrrolo[3,4-c]pyrrole] was tested. Which pKi (human orexin 1 receptor [1]) did it give?
**A.** 5.37

**Q.** How did the pKi (human orexin 1 receptor [2]) turn out when COc1ncc(-c2cccc(F)c2C(=O)N2CC3CN(c4nc(C)cc(C)n4)CC3C2)s1 (stereo not shown) [Example 479, 2-(4,6-Dimethylpyrimidin-2-yl)-5-{[2-fluoro-6-(2-methoxy-1,3-thiazol-5-yl)phenyl]carbonyl}octahydropyrrolo[3,4-c]pyrrole] was run?
**A.** 5.05

**Q.** With Cc1cc(C)nc(N2CC3CN(C(=O)c4c(F)cccc4C4=CC(=O)OC4)CC3C2)n1 (stereo not shown) [Example 480, 4-(2-{[5-(4,6-Dimethylpyrimidin-2-yl)hexahydropyrrolo[3,4-c]pyrrol-2(1H)-yl]carbonyl}-3-fluorophenyl)furan-2(5H)-one] as the compound, how does the pKi (human orexin 1 receptor [2]) read?
**A.** 5.00

**Q.** With Cc1cc(C)nc(N2CC3CN(C(=O)c4c(F)cccc4-c4ncccc4F)CC3C2)n1 (stereo not shown) [Example 481, 2-(4,6-Dimethylpyrimidin-2-yl)-5-{[2-fluoro-6-(3-fluoropyridin-2-yl)phenyl]carbonyl}octahydropyrrolo[3,4-c]pyrrole] as the compound, how does the pKi (human orexin 1 receptor [2]) read?
**A.** 5.82

**Q.** With Cc1cc(C)nc(N2CC3CN(C(=O)c4c(F)cccc4-c4cn(C)cn4)CC3C2)n1 (stereo not shown) [Example 482, 2-(4,6-Dimethylpyrimidin-2-yl)-5-{[2-fluoro-6-(1-methyl-1H-imidazol-4-yl)phenyl]carbonyl}octahydropyrrolo[3,4-c]pyrrole] as the compound, how does the pKi (human orexin 1 receptor [2]) read?
**A.** 5.87

**Q.** COc1ccnc(-c2cccc(F)c2C(=O)N2CC3CN(c4nc(C)cc(C)n4)CC3C2)n1 (stereo not shown) [Example 483, 2-(4,6-Dimethylpyrimidin-2-yl)-5-{[2-fluoro-6-(4-methoxypyrimidin-2-yl)phenyl]carbonyl}octahydropyrrolo[3,4-c]pyrrole] was tested. Which pKi (human orexin 1 receptor [2]) did it give?
**A.** 6.55

**Q.** Cc1cc(C)nc(N2CC3CN(C(=O)c4c(F)cccc4-c4ccc(Cl)cn4)CC3C2)n1 (stereo not shown) [Example 484, 2-{[2-(5-Chloropyridin-2-yl)-6-fluorophenyl]carbonyl}-5-(4,6-dimethylpyrimidin-2-yl)octahydropyrrolo[3,4-c]pyrrole] was tested. Which pKi (human orexin 1 receptor [1]) did it give?
**A.** 5.62

**Q.** With CSc1nccc(-c2cccc(F)c2C(=O)N2CC3CN(c4nc(C)cc(C)n4)CC3C2)n1 (stereo not shown) [Example 485, 2-(4,6-Dimethylpyrimidin-2-yl)-5-({2-fluoro-6-[2-(methylsulfanyl)pyrimidin-4-yl]phenyl}carbonyl)octahydropyrrolo[3,4-c]pyrrole] as the compound, how does the pKi (human orexin 1 receptor [2]) read?
**A.** 5.04

**Q.** Cc1cc(C)nc(N2CC3CN(C(=O)c4c(F)cccc4-c4cscn4)CC3C2)n1 (stereo not shown) [Example 486, 2-(4,6-Dimethylpyrimidin-2-yl)-5-{[2-fluoro-6-(1,3-thiazol-4-yl)phenyl]carbonyl}octahydropyrrolo[3,4-c]pyrrole] was tested. Which pKi (human orexin 1 receptor [2]) did it give?
**A.** 5.89

**Q.** Cc1cc(C)nc(N2CC3CN(C(=O)c4c(F)cccc4-c4cncs4)CC3C2)n1 (stereo not shown) [Example 487, 2-(4,6-Dimethylpyrimidin-2-yl)-5-{[2-fluoro-6-(1,3-thiazol-5-yl)phenyl]carbonyl}octahydropyrrolo[3,4-c]pyrrole] was tested. Which pKi (human orexin 1 receptor [2]) did it give?
**A.** 5.52

**Q.** Cc1cc(C)nc(N2CC3CN(C(=O)c4c(F)cccc4-c4ccnnc4)CC3C2)n1 (stereo not shown) [Example 488, 2-(4,6-Dimethylpyrimidin-2-yl)-5-[(2-fluoro-6-pyridazin-4-ylphenyl)carbonyl]octahydropyrrolo[3,4-c]pyrrole] was tested. Which pKi (human orexin 1 receptor [2]) did it give?
**A.** 5.00

**Q.** How did the pKi (human orexin 1 receptor [2]) turn out when Cc1ccnc(-c2cccc(F)c2C(=O)N2CC3CN(c4nc(C)cc(C)n4)CC3C2)c1 (stereo not shown) [Example 489, 2-(4,6-Dimethylpyrimidin-2-yl)-5-{[2-fluoro-6-(4-methylpyridin-2-yl)phenyl]carbonyl}octahydropyrrolo[3,4-c]pyrrole] was run?
**A.** 5.43

**Q.** With Cc1cc(C)nc(N2CC3CN(C(=O)c4c(F)cccc4-c4ncco4)CC3C2)n1 (stereo not shown) [Example 491, 2-(4,6-Dimethylpyrimidin-2-yl)-5-{[2-fluoro-6-(1,3-oxazol-2-yl)phenyl]carbonyl}octahydropyrrolo[3,4-c]pyrrole] as the compound, how does the pKi (human orexin 1 receptor [2]) read?
**A.** 6.03

**Q.** With Cc1cc(C)nc(N2CC3CN(C(=O)c4cc(F)ccc4-c4cccn4C)CC3C2)n1 (stereo not shown) [Example 493, 2-(4,6-Dimethylpyrimidin-2-yl)-5-{[5-fluoro-2-(1-methyl-1H-pyrrol-2-yl)phenyl]carbonyl}octahydropyrrolo[3,4-c]pyrrole] as the compound, how does the pKi (human orexin 1 receptor [2]) read?
**A.** 5.00

**Q.** With Cc1cc(C)nc(N2CC3CN(C(=O)c4cc(F)ccc4-c4cscn4)CC3C2)n1 (stereo not shown) [Example 494, 2-(4,6-Dimethylpyrimidin-2-yl)-5-{[5-fluoro-2-(1,3-thiazol-4-yl)phenyl]carbonyl}octahydropyrrolo[3,4-c]pyrrole] as the compound, how does the pKi (human orexin 1 receptor [2]) read?
**A.** 5.00

**Q.** With Cc1nc(N2CC3CN(C(=O)c4cccc(F)c4-c4ncco4)CC3C2)ncc1F (stereo not shown) [Example 496, 2-(5-Fluoro-4-methylpyrimidin-2-yl)-5-{[3-fluoro-2-(1,3-oxazol-2-yl)phenyl]carbonyl}octahydropyrrolo[3,4-c]pyrrole] as the compound, how does the pKi (human orexin 1 receptor [2]) read?
**A.** 5.76
